No constants are given. Whether binding was seen depends on the method and setting. For some of these results: Binding seen in cells or lysates may run through a third protein. Some results given as binding are weak or reduced against the parent protein; the word gives no strength. For some of these results: Sequences can lack the tags named with a protein.
Columns and labels:
[1] = target: T1, Flag-TRIM65 (full length) (UniProt Q6PJ69); assay: co-IP; lysates of co-transfected HEK293T cells, western blot; IgG as negative control
T1 sequence: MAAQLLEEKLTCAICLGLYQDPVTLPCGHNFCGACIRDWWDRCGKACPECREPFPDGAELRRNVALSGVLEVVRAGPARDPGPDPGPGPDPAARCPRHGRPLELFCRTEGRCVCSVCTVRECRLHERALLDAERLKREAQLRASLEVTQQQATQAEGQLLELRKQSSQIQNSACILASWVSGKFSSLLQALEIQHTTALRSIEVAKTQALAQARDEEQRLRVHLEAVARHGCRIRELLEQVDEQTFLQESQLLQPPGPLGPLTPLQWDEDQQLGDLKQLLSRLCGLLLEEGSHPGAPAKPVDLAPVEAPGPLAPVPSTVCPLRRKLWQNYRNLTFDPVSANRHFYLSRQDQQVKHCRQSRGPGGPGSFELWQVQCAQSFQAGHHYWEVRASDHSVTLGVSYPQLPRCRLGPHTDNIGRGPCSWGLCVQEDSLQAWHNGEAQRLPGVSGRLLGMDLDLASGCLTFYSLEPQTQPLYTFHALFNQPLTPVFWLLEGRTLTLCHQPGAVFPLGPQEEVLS

Protein sequences, listed by entry. Tags and fused reporters are not part of them. Lines headed by an entry give the natural chain unless they say otherwise; changes in a name come on top.
UniProt P21796: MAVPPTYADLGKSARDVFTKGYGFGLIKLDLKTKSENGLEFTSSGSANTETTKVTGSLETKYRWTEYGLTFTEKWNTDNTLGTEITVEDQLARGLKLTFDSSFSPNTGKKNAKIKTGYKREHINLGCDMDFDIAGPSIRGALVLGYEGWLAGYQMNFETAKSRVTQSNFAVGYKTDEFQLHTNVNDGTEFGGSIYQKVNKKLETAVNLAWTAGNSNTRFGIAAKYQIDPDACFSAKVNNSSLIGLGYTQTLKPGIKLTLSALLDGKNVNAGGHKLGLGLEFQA

[2] = target: T2, GST-TRIM65 fusion protein (UniProt Q6PJ69); assay: pull-down; purified GST or GST-TRIM65 on beads incubated with lysates of HEK293T cells transfected with 10 µg HA-VDAC1 plasmid; western blot; only the target purified
T2 sequence: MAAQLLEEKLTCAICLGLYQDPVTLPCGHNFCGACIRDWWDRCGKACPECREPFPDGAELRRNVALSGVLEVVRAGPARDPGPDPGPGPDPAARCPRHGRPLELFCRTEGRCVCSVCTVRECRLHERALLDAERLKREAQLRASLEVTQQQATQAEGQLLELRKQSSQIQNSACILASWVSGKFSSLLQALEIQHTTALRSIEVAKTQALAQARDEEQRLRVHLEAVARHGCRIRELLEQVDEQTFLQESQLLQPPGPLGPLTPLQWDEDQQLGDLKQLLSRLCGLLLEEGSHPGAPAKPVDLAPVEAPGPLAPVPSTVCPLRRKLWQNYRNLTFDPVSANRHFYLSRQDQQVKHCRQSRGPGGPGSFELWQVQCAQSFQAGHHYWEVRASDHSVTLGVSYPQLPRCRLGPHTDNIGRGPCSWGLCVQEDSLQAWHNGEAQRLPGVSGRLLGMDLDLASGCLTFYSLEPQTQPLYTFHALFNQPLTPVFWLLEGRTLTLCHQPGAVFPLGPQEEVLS

[3] = target: T3, TRIM65 (endogenous, HK-2 cells) (human (endogenous in HK-2)) (UniProt Q6PJ69); assay: co-IP; lysates of HK-2 cells, western blot; IgG as negative control
T3 sequence: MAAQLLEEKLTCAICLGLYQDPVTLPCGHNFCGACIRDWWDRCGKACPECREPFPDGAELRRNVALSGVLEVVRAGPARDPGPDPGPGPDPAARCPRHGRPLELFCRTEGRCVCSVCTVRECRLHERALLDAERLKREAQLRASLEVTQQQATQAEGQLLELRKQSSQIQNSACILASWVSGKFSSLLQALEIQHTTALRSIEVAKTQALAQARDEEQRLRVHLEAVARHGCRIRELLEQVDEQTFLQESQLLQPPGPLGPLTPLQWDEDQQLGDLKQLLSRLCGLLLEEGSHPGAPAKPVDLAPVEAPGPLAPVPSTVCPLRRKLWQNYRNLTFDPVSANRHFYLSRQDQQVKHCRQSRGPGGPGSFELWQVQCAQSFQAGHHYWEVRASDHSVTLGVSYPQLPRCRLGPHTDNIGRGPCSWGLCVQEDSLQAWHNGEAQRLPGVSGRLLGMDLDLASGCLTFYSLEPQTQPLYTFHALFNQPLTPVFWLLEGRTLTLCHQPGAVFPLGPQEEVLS

[4] = target: T4, TRIM65 (yeast two-hybrid fusion) (UniProt Q6PJ69); assay: two-hybrid; yeast two-hybrid system
T4 sequence: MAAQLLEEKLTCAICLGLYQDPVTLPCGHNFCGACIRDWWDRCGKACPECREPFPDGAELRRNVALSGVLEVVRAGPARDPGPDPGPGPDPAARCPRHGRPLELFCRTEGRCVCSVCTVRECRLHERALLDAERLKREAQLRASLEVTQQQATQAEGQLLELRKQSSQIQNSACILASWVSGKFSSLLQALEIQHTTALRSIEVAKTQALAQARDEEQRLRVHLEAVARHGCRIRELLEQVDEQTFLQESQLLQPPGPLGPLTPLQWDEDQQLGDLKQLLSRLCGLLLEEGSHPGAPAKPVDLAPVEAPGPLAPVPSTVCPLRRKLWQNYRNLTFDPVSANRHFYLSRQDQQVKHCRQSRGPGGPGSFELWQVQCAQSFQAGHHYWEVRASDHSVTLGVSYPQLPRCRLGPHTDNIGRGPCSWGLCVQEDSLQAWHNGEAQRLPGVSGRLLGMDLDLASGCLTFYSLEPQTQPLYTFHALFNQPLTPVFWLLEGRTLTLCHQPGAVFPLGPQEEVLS

HA-VDAC1 = HA-VDAC1 (UniProt P21796); assay: co-IP; lysates of co-transfected HEK293T cells, western blot; IgG as negative control

Question: How did the binding [1] turn out when “GFP-VDAC1 deletion mutant, amino acids 1-131 (from UniProt P21796 1-131) (domain or fragment)” was run?
Answer: Its binding is “binds”.

Question: Which binding [1] does the source give for “GFP-VDAC1 deletion mutant, amino acids 132-283 (from UniProt P21796 132-283) (domain or fragment)” here?
Answer: The binding was “no binding”.

Question: Which binding [1] does the source give for HA-VDAC1 (from UniProt P21796 1-283) here?
Answer: Its binding is “binds”.

Question: And the binding [2]?
Answer: The binding was “binds”.

Question: For “VDAC1 (endogenous, HK-2 cells) (from UniProt P21796 1-283)”, which binding [3] is on record?
Answer: Its binding is “binds”.

Question: “VDAC1 (yeast two-hybrid fusion) (from UniProt P21796 1-283)” was tested. Which binding [4] did it give?
Answer: The binding was “binds”.

B1: Flag-TRIM65 (full length) (protein, UniProt Q6PJ69 1-517)
chain: MAAQLLEEKLTCAICLGLYQDPVTLPCGHNFCGACIRDWWDRCGKACPECREPFPDGAELRRNVALSGVLEVVRAGPARDPGPDPGPGPDPAARCPRHGRPLELFCRTEGRCVCSVCTVRECRLHERALLDAERLKREAQLRASLEVTQQQATQAEGQLLELRKQSSQIQNSACILASWVSGKFSSLLQALEIQHTTALRSIEVAKTQALAQARDEEQRLRVHLEAVARHGCRIRELLEQVDEQTFLQESQLLQPPGPLGPLTPLQWDEDQQLGDLKQLLSRLCGLLLEEGSHPGAPAKPVDLAPVEAPGPLAPVPSTVCPLRRKLWQNYRNLTFDPVSANRHFYLSRQDQQVKHCRQSRGPGGPGSFELWQVQCAQSFQAGHHYWEVRASDHSVTLGVSYPQLPRCRLGPHTDNIGRGPCSWGLCVQEDSLQAWHNGEAQRLPGVSGRLLGMDLDLASGCLTFYSLEPQTQPLYTFHALFNQPLTPVFWLLEGRTLTLCHQPGAVFPLGPQEEVLS
Question: For B1, which binding (HA-VDAC1) is on record?
Answer: The binding was “binds”.

— publication PMC12013732
